Measurements: PubChem BioAssay AID602310 (National Center for Advancing Translational Sciences (NCATS), 2012)
Out of some 410,000 compounds screened, about 310 (0.076%) were called active. Inconclusive means that the source gave no clear call. Such entries were picked first, then a sample of the others. Calls come from the whole dose curve; as a rule, active = well fitted curve in the direction sought with a large enough effect; inconclusive = small, poorly fitted or top-dose-only effect; inactive = flat fitted curve, though single readings scatter. A potency beside an inconclusive call is a rough fit, not a confirmed value.

What follows are compounds tested against DNA dC->dU-editing enzyme APOBEC-3G (Homo sapiens) (UniProt Q9HC16) (assay: qHTS for Inhibitors of Vif-A3G Interactions: qHTS). Details: HeLa A3G-eYFP + Vif (tagged APOBEC3G with the HIV-1 protein that degrades it), YFP fluorescence, overnight; series mostly up to 46.1 µM.
Method in brief: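 HeLa cells stably expressing Vif and C-terminally eYFP-tagged A3G, seeded overnight at 37 deg C, then exposed to compound by pintool overnight at 37 deg C. Rise in yellow fluorescence (Ex 488/Em 500-530, Acumen) marks blocked Vif-driven A3G degradation.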
Note: nearly all actives have a fitted effect of over 60% in size.
Potency is the fitted concentration of half-maximal effect; tags give direction and shape of the fitted curve.

Sequence of UniProt Q9HC16 (Q9HC16 whole entry, looked up): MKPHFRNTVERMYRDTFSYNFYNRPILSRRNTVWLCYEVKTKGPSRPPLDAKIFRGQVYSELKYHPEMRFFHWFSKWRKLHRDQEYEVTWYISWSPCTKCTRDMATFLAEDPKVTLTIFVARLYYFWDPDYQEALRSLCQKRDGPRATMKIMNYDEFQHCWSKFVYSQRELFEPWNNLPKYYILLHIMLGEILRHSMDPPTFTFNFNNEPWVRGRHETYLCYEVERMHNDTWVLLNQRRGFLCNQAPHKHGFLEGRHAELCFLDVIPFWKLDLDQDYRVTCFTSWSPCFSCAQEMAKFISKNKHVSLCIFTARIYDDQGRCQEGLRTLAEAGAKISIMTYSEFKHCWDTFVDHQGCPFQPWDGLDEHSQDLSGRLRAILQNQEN

Row | Compound | Potency
1 | CS(=O)(=O)c1ccc2nc(NC(=O)CCS(=O)(=O)c3ccccc3)sc2c1 | inconclusive: 11.2 µM [inhibitor, partial curve, poor fit]
2 | Cc1ccc(C2CC(c3ccccc3)=NN2C(=S)Nc2ccccc2)o1 (stereo not drawn) | inconclusive: 1.58 µM [inhibitor, full curve, poor fit]
3 | COC(=O)c1ccccc1NC(=O)CSc1nc(-c2ccco2)cc(C(F)(F)F)n1 | inconclusive: 1.26 µM [inhibitor, full curve]
4 | CC(=O)c1ccc(NC(=O)Nc2ccc([N+](=O)[O-])cc2)cc1 | inactive
5 | CC(C)n1cc(/C=C2/NC(=O)N(c3cccc(Cl)c3)C2=O)c2ccccc21 | inconclusive: 11.2 µM [inhibitor, partial curve]
6 | Cc1cc(-c2ccccc2)c2c3c(c(-c4ccccc4)n2n1)c(=O)n(C)c(=O)n3C | inconclusive: 35.5 µM [inhibitor, single point]
7 | O=c1[nH]nc(SCCS(=O)(=O)c2ccc(F)cc2)n1-c1ccc2c(c1)OCCO2 | inconclusive: 35.5 µM [inhibitor, single point]
8 | Cc1ccc(CS(=O)(=O)c2ncc(Cl)c(C(=O)Nc3nnc(C)s3)n2)cc1 | inconclusive: 12.6 µM [inhibitor, partial curve, poor fit]
9 | O=C(Nc1cc(Cl)cc(Cl)c1)c1ccc(F)c(S(=O)(=O)NC2CCCCC2)c1 | inactive
10 | CCc1cc(SC#N)ccc1N | inconclusive: 22.4 µM [inhibitor, single point]
11 | CCC(CO)Oc1cc(NCc2cccc(Cl)c2)c2ncn(C(C)C)c2c1 (stereo not drawn) | inconclusive: 12.6 µM [inhibitor, partial curve, poor fit]
12 | CC(=O)Nc1sc(NC(=O)c2ccccc2)nc1-c1cccs1 | inactive
13 | COC(=O)c1cc(=O)n(Cc2ccco2)c(=Nc2ccc(F)cc2)s1 | inconclusive: 31.6 µM [inhibitor, single point]
14 | COC(=O)c1ccc(Cn2cc(/C=C\[N+](=O)[O-])c3ccccc32)o1 | inconclusive: 15.8 µM [inhibitor, single point]
15 | COc1ccccc1Oc1c(C)oc2c(CN3CCN(CCO)CC3)c(O)ccc2c1=O | inactive
16 | O=C(/C=C/c1ccccc1)C1=C(O)C(=O)N(CCO)C1c1cccc([N+](=O)[O-])c1 (stereo not drawn) | inactive
17 | Cn1c(NCc2cccnc2)nc2cc(-c3ccc(C(=O)N4CCOCC4)cc3)sc2c1=O | inconclusive: 25.1 µM [inhibitor, single point]
18 | CCN(CC)S(=O)(=O)c1cc(C(=O)Nc2cc(S(=O)(=O)N3CCOCC3)ccc2N2CCN(C)CC2)ccc1C | inactive
